The labels stand for the following.
B1: CPEB3 Ribozyme (parent)
chain: UAACAGGGGGCCACAGCAGAAGCGUUCACGUCGCAGCCCCUGUCAGAUUCUGGUGAAUCUGCGAAUUCUGCUGUAUAUCUC

Read counts are not given, so values of variants with three or more changes are uncertain.

Experimental findings from the RNAGym collection of RNA variant scans (doi:10.1093/nar/gkz1192) are described below.

Variants of B1 are the subject of the data set. Nature of the data set: self-cleavage, relative activity (ratio to wild type); higher = more cleavage; in vitro, sequencing. Summed up: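 CPEB3 self-cleaving ribozyme mutant libraries were made by rounds of error-prone PCR, barcoded, and transcribed in vitro with T7 RNA polymerase for 5 hours at 37°C. Cleavage occurred during transcription and a 15 min DNase I step before EDTA stop. RNAs were reverse transcribed with template switching and Illumina-sequenced, with DNA sequencing mapping barcodes to variants. Relative activity is the variant's cleaved/total read fraction divided by wild type's (minimum 5 reads), averaged across three batches.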
For A47G A65G U67C U76C, the self-cleavage was 0.13.

Take A47G A65G U69A: the self-cleavage was determined as 0.25.

Turning to A45G U49C U51C G61A U74A, the self-cleavage came out at 0.21.

Take A47G C59U U74A: the self-cleavage is 0.91. A45G U51A G55C A57G: the self-cleavage came to 0.23. In the case of A45U U49C A64G G73A, the self-cleavage is 0.06. With A47G U49C U54A A56U the figure was 0.21. With A45U C50U U54G the figure was 0.16; with A45G U60C U74C A75G, 1.28; with A45U U48C U67A U72C, 0.05. For A45G U51C A65G U72C A75G U76C, the self-cleavage came to 0.37. In the case of A45G A47G U78C, the self-cleavage turned out to be 0.36. Consider A47G U51A U72C, for which the self-cleavage came to 1.24. As for A45G G53A A57G U60A, the self-cleavage turned out to be 0.49. As to A45G C62U U69A, the self-cleavage turned out to be 0.

For the variant A45U C50U U51C A56U, the self-cleavage is 0.11. Consider A45G A64G U69A, for which the self-cleavage worked out at 0.31. Regarding A45C U58A A64U U67A, the self-cleavage amounted to 0.05. Turning to A47G U54A U60C, the self-cleavage was 0.33.

On to A45G U69C C79A, for which the self-cleavage is 0.61.

In the case of A45G G52A U67C U74A, the self-cleavage turned out to be 0.38.

On to A45U U48C A57G, for which the self-cleavage was 0.55. As to A45G A57G C68U U69A, the self-cleavage was 0.31.

Consider A47G G53C U74A A75G, for which the self-cleavage amounted to 1.07. As for A45U A64G U69C, the self-cleavage came out at 0.41. A45U A47G A64G U66C: the self-cleavage amounted to 0.13.

Turning to A45G U51A U67C, the self-cleavage came to 0.28.

As to A45U U69A U76C, the self-cleavage was 0.32. As for A47G G55U A56G U78A, the self-cleavage was 0.93.

Take A45U U60C G61A: the self-cleavage is 0.15. On to A45U U49A A57G U58A, for which the self-cleavage stood at 0.11.

With A45G U54C U69C U78C, the self-cleavage worked out at 0.28.

With A45U C62G G63A, the self-cleavage worked out at 0.2. On to A47G U51A A56G U72C, for which the self-cleavage is 0.64. Under A45G U60C U67C A75G stands 0.17.

Regarding A47U A57G U76C C79A, the self-cleavage stood at 0.17. Under A45G A64U U80C stands 1.19. As for A45G A77U U78C, the self-cleavage turned out to be 0.93.

Consider A45G A57G A64C, for which the self-cleavage turned out to be 0.34.

Regarding A47G U58A C71U, the self-cleavage was 0.27.

As to G46A C62A U67C, the self-cleavage stood at 0.12.

For A47C U69A U74C A75G, the self-cleavage amounted to 0.19. With A45G U66C C79U the figure was 0.34; with A45G A47U U60C, 1.05; with A45G A47G U58C U69C, 0.15. Under A47U U54C A64U stands 0.54; under A45G G53A A65G A77G, 0.3.

Consider A45G A57U U66C, for which the self-cleavage is 0.23.

For A45G U49G A57G, the self-cleavage was determined as 0.28. Regarding A47G A65G U67C, the self-cleavage came to 0.13. For the variant A47U U49A A64G, the self-cleavage was 0.16. Consider U48A A64G U67C C71G, for which the self-cleavage is 0.12. For the variant A47C U54A C62A U67A U69A, the self-cleavage was found to be 0.1.

For A45G U58A A64C A77U, the self-cleavage is 0.24.

As for A45G U51C A64G, the self-cleavage stood at 0.57. Regarding A45U U49C G61A, the self-cleavage was determined as 0.05. Regarding A45U A56G U60C, the self-cleavage came to 0.27. For the variant U48A A56G C68U, the self-cleavage came to 0.17.

For the variant A47G A64G U80C, the self-cleavage was found to be 0.58. Turning to A45G U54C A56G, the self-cleavage was 0.53. For G46U U48C U60C U66C U78C, the self-cleavage was determined as 0.05. For the variant A47U U60C A77G U80G, the self-cleavage turned out to be 0.09. In the case of A47G A57G U76C, the self-cleavage stood at 0.56. For A45G U60G U74A, the self-cleavage is 0.59. Under A45U U60A A64G stands 0.72; under A45U U54C A65G, 0.2; under A45U U54A A56G U72A, 0.35. As to A45G U49A U60A U72A, the self-cleavage worked out at 0.16.

As for A47G U69C U78C, the self-cleavage stood at 0.63. Turning to A47G U48C U60C A75G, the self-cleavage was determined as 0.07. Consider A45U U72C U80A, for which the self-cleavage was found to be 0.42.

A45U U72C U80C: the self-cleavage worked out at 0.66. Consider G46U U48C U51A, for which the self-cleavage came to 0.07. With A45U U69C A75G A77G the figure was 0.19; with A45U U48A U72A U78C, 0.09; with A45G U60C C71A, 0.43. With A47U U60A A64G the figure was 0.15; with A45U C62A U67C, 0.35. With A45U U54A U80C the figure was 0.66; with A47U U51C U58C A64G U78C, 0.11.

Turning to A45U U51C G52U, the self-cleavage turned out to be 0.29. With A47G U54C U78C the figure was 0.68; with A45U G55A U69C, 0.15; with A47G U49A U74C, 0.74. Consider U48A U54A A56G C62U, for which the self-cleavage was 0.2. As to G46U U67A U80C, the self-cleavage came out at 0.14. A47G U49A U60A U78A: the self-cleavage worked out at 0.27. Under A47U U49C U72C stands 0.23. In the case of A47G U60A A65G U72C, the self-cleavage was determined as 0.14. On to A45U U78C U80A, for which the self-cleavage worked out at 0.54.

Turning to A45G U60A U67C A75G, the self-cleavage came out at 0.21. A47U A57G U72C: the self-cleavage is 0.2.

For A45G U66C U76A, the self-cleavage was determined as 0.27. Under U48A U49A A56G U60A U69A stands 0.07; under A45G U49G A75U, 0.24.

As to A45G U72C C79A, the self-cleavage was found to be 1.19. Consider U48A A65G U78C, for which the self-cleavage turned out to be 0.15. Consider A45U U49C A77G, for which the self-cleavage came out at 0.39. With U48C A57C U58C U69A the figure was 0.23; with G46A U78C U80C, 0.07; with A45G U49A C50U, 0.46. For the variant A47G U66C U67C, the self-cleavage was 0.22. Take A45G A47U U74A: the self-cleavage was 0.54. With U48C A64G U74C U80A the figure was 0.61; with A45G U48C U58A, 0.15; with A47G U51A U67C U76C, 0.48.

For A45G U51C A56U, the self-cleavage was 0.26. As to A45G U51C U67C A77G, the self-cleavage came to 0.4. Under A47U A64G U67C stands 0.17; under A45G U60C U66C, 0.24. With A47G A56G U67A the figure was 0.46. Turning to A45G U48C U58A A64G, the self-cleavage was found to be 0.12. As to A45G U48A U49C A64G, the self-cleavage was 0.04. As to A47G A65G U67C U72C, the self-cleavage was 0.24. As for A45U A57G U72C, the self-cleavage was 0.38.

U48C A75U U80A: the self-cleavage came out at 0.69.

On to A47G A57G U72A, for which the self-cleavage came out at 0.58. For A47G U69A A75G, the self-cleavage was 0.36. With A45G G53A U69C, the self-cleavage was 0.6. As for A45G A64U U67A, the self-cleavage was 0.45. With A45G A64G A65G U66C the figure was 0.17; with G46U U58A A65G, 0.07. A47C U72A U74A: the self-cleavage was 0.68. As to A45G A64U U72C, the self-cleavage was 0.34. Under A47G A56U A64U stands 0.15; under G46U U66C G73U, 0.43; under A45G U51C U67A, 0.36. On to A45U U54C A56G, for which the self-cleavage worked out at 0.25. A45U A57U U66A: the self-cleavage amounted to 0.12. Take A47U A57U U60C U67A: the self-cleavage worked out at 0.1. Regarding A47G U54C A64U U67C U72C, the self-cleavage was found to be 0.17. On to A45G U58C U60C U72G U76A, for which the self-cleavage turned out to be 0.46. In the case of A45G U48A U51C U69C, the self-cleavage was 0.21.

A45G U54G U67C: the self-cleavage came out at 0.19. As to A45G U69C U78A, the self-cleavage was found to be 0.32.

With A47G A56C A65G U66C U67C, the self-cleavage was 0.14. For the variant A45G U69A U80C, the self-cleavage worked out at 0.58.

As to G46A A47G A57G U58C C62A, the self-cleavage stood at 0. As to A45G U51C U74A, the self-cleavage came out at 1.04.

Consider A45G A57G U69A, for which the self-cleavage was determined as 0.26. Consider A45G U72C U80A, for which the self-cleavage came out at 1.17. Under A45G U48C U67G U76C stands 0.16; under A45G U48C A64G U66C U80C, 0.21; under A45G G55A A64U, 0.31. For the variant A45G U49A U67C C79G U80C, the self-cleavage stood at 0.13. Consider A45G U51C C62A U66C, for which the self-cleavage was 0.4. With A47G U72A U80A, the self-cleavage came to 0.8. For the variant A45U U58C U60C, the self-cleavage worked out at 0.19. A47G U51C A64U U74C U78C: the self-cleavage was determined as 0.35. For the variant A47G U67A U74C, the self-cleavage was 0.63. For A45U A47G G61A, the self-cleavage worked out at 0.45. Turning to A47G G53C A65G A77U, the self-cleavage was 0.59. As to A45U A47C U58A U60A, the self-cleavage was found to be 0.51. Regarding A45G U51A A57G, the self-cleavage was determined as 0.35.

G46A G53U U80C: the self-cleavage was 0.65. For A47U A57G U58C U60G, the self-cleavage was 0.

With A45G U49C U74C, the self-cleavage was 0.41. With U48C A57C U69C the figure was 0.4. A45U A65G U66C U69C: the self-cleavage was 0.12. With A45U U51C U54C U69C, the self-cleavage turned out to be 0.2. Under A47U U49A U51C A57G stands 0.2. For A47G U49A C50U A64U U80C, the self-cleavage is 0.26. Turning to A47G U60A U76A, the self-cleavage was found to be 0.45. For A45G A56U U67A, the self-cleavage is 0.28. A45G A57G C59U U72C: the self-cleavage came out at 0.23. As to A47G U49C U72A, the self-cleavage amounted to 0.24. In the case of U48A U49C U72C, the self-cleavage is 0.19.
